The campaign covered roughly 290,000 compounds. About 1,100 (0.38%) were called active. Inconclusive means that the source gave no clear call. Such entries were picked first, then a sample of the others. Calls come from the whole dose curve; as a rule, active = well fitted inhibition curve with a large enough effect; inconclusive = small, poorly fitted or top-dose-only effect, or another doubt; inactive = no such curve, though single readings can be large or run the other way. A potency beside an inconclusive call is a rough fit, not a confirmed value.
molecular target: Pyruvate kinase (Leishmania mexicana) (UniProt Q27686); experiment: qHTS Assay for Inhibitors of Leishmania Mexicana Pyruvate Kinase (LmPK); conditions: purified LmPK, Kinase-Glo ATP luminescence, 1 h; activity change, negative = inhibition: at 57.5 µM (top of the series) unless noted
Chain of UniProt Q27686 (Q27686 whole entry, looked up): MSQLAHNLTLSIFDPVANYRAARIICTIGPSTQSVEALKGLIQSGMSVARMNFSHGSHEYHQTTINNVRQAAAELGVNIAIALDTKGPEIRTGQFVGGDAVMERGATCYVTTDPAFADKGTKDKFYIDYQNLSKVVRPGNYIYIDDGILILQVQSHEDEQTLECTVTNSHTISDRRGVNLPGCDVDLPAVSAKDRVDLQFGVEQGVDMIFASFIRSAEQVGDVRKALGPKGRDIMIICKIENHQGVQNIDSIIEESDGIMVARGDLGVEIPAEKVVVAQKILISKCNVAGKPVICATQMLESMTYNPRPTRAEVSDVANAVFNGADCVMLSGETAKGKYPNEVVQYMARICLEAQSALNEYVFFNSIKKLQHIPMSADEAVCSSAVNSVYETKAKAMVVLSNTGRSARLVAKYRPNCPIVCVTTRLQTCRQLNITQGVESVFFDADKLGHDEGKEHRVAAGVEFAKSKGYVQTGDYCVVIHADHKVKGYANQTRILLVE
Outline: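 Kinase-Glo luminescence read after 1 h RT reaction of 0.1 nM LmPK with 0.5 mM PEP and 0.1 mM ADP. Activity scaled between uninhibited and enzyme-free controls.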
% is set by controls: 0 for no effect and ±100 for the full control effect; potency is the fitted concentration of half-maximal effect; tags give direction and shape of the fitted curve.

Question: How did the Potency turn out when `CCOc1ccc(-n2c(-c3ccccc3)c[nH]c2=S)cc1` was run?
Answer: inconclusive: 7.94 µM [falling, partial curve]

Question: With `COc1ccc(-c2cc3ncc(-c4ccccc4)c(N)n3n2)cc1` as the compound, how does the Potency read?
Answer: active: 15.8 µM

Question: For `C=CCSc1nn2c(=O)c3ccccc3nc2s1`, which Potency is on record?
Answer: inconclusive: 15.8 µM [falling, partial curve]

Question: Which Potency does the source give for `CCn1ncc(/C=C/C(=O)c2ccccc2)c1C` here?
Answer: inconclusive: 14.1 µM [falling, partial curve]

Question: `Cc1ccc(Sc2c(C)[nH]n(C(C)(C)C)c2=O)cc1` was tested. Which “activity change, negative = inhibition” value did it give?
Answer: inactive: -0.0938%

Question: For `Cc1cc(/C=N/Nc2ncnc(N)c2[N+](=O)[O-])c(C)n1-c1ccccc1`, which Potency is on record?
Answer: inconclusive: 17.8 µM [falling, partial curve]

Question: `CC(C)n1c(CSCc2ccc(Cl)cc2Cl)n[nH]c1=S` was tested. Which Potency did it give?
Answer: inconclusive: 28.2 µM [falling, single point]

Question: With `O=C(O)CSc1cc(NS(=O)(=O)c2ccc(Cl)cc2)c2ccccc2c1O` as the compound, how does the Potency read?
Answer: inconclusive: 3.55 µM [falling, single point]

Question: For `COc1ccc2c(c1OC)C(=O)N(c1cccc(C)c1)C2`, which Potency is on record?
Answer: active: 14.1 µM

Question: `COc1ccc(C(=O)/C=C/Nc2ccccn2)cc1` was tested. Which Potency did it give?
Answer: active: 12.6 µM

Question: For `Cc1cc(C)nc(-n2nc(C)cc2NC(=O)CN2CCCC(C)C2)n1` (centres undefined), which “activity change, negative = inhibition” value is on record?
Answer: inactive: 5.42%

Question: For `CN(C)c1ccc(C(=O)/C=C/c2ccco2)cc1`, which “activity change, negative = inhibition” value is on record?
Answer: inactive: -21.9%

Question: `CCN1C=CC(=C2C(=O)c3ccccc3C2=O)C=C1` was tested. Which Potency did it give?
Answer: active: 12.6 µM

Question: `Cc1ccc(C(=O)n2c(=S)nc3ccccn32)cc1` was tested. Which Potency did it give?
Answer: active: 14.1 µM

Question: For `COc1ccc(NC2CCCN(C(=O)c3ccc(C(C)=O)s3)C2)cc1` (centres undefined), which “activity change, negative = inhibition” value is on record?
Answer: inactive: 2.13%

Question: How did the Potency turn out when `Nc1ccc(/C=C/C(=O)c2cccs2)cc1` was run?
Answer: inconclusive: 28.2 µM [falling, single point]

Question: How did the Potency turn out when `C=CCn1c(-c2ccccc2OCC)n[nH]c1=S` was run?
Answer: inconclusive: 31.6 µM [falling, single point]

Question: How did the Potency turn out when `CCOC(=O)c1sc(NC(=O)c2sccc2C)cc1C` was run?
Answer: inconclusive: 10 µM [falling, partial curve]

Question: For `Cn1c2c(c(=O)[nH]c1=O)C(c1cccc(O)c1)C1=C(N2)c2ccccc2C1=O` (centres undefined), which Potency is on record?
Answer: inconclusive: 35.5 µM [falling, single point]

Question: How did the Potency turn out when `S=c1[nH]nc(-c2ccccc2)n1Cc1ccccc1` was run?
Answer: active: 10 µM

Question: With `Cc1nc2nc(-c3ccc(Cl)cc3)cn2nc1C` as the compound, how does the Potency read?
Answer: inconclusive: 15.8 µM [falling, partial curve]

Question: Which Potency does the source give for `O=C(c1ccc(F)cc1)n1c(=S)nc2ccccn21` here?
Answer: active: 5.01 µM

Question: With `COc1ccccc1-c1noc(-c2ccco2)n1` as the compound, how does the Potency read?
Answer: inconclusive: 20 µM [falling, single point]

Question: Which Potency does the source give for `Cc1ccccc1-c1noc(-c2ccc(O)cc2)n1` here?
Answer: active: 14.1 µM

Question: For `Cn1c(CNc2ccccc2)nc2ccccc21`, which Potency is on record?
Answer: inconclusive: 15.8 µM [falling, partial curve]

Question: With `CSc1nc2ccc(NC(=O)c3ccc(=O)n(C)n3)cc2s1` as the compound, how does the Potency read?
Answer: inconclusive: 15.8 µM [falling, partial curve]

Question: `O=C(COc1ccccc1)Nc1ccc2c(c1)nc1n2CCOC1` was tested. Which “activity change, negative = inhibition” value did it give?
Answer: inactive: 0.277%

Question: How did the Potency turn out when `O=C1CC(c2ccc3c(c2)OCO3)Sc2nc3ccccc3n21` (centres undefined) was run?
Answer: inconclusive: 22.4 µM [falling, single point]

Question: How did the Potency turn out when `O=C(N/N=C/c1ccccc1Cl)c1cccc(F)c1` was run?
Answer: inconclusive: 22.4 µM [falling, single point]

Question: With `O=C(NNc1cc(Br)c(O)c(Br)c1)c1ccccc1` as the compound, how does the Potency read?
Answer: inconclusive: 14.1 µM [falling, partial curve]

Question: With `O=c1c(=NNc2ccccc2Cl)c(=O)c2ccccc12` as the compound, how does the Potency read?
Answer: active: 15.8 µM

Question: With `Clc1ccc(/C=C/c2nc3ccccc3[nH]2)cc1` as the compound, how does the Potency read?
Answer: active: 8.91 µM

Question: For `CCN(Cc1ccccc1)C(c1ccccn1)c1nnnn1C(C)(C)CC` (centres undefined), which Potency is on record?
Answer: inconclusive: 39.8 µM [falling, single point]

Question: Which “activity change, negative = inhibition” value does the source give for `Cc1nc(-c2ccc(-n3nncc3-c3ccco3)cc2)cs1` here?
Answer: inactive: -2.96%

Question: Which “activity change, negative = inhibition” value does the source give for `COc1cc(C(=O)NNC(=O)C2CC2)cc(OC)c1OC` here?
Answer: inactive: 0.0226%

Question: For `S=c1[nH]nc(-c2cccnc2)n1Cc1ccccc1`, which Potency is on record?
Answer: inconclusive: 17.8 µM [falling, partial curve]

Question: With `O=C(Nc1ncc([N+](=O)[O-])s1)c1ccco1` as the compound, how does the Potency read?
Answer: inconclusive: 22.4 µM [falling, partial curve]

Question: How did the Potency turn out when `Oc1ccc(-c2n[nH]c(=S)n2Cc2ccccc2)cc1` was run?
Answer: active: 8.91 µM

Question: `Fc1ccc(NCc2cn3ccccc3n2)cc1` was tested. Which Potency did it give?
Answer: active: 11.2 µM

Question: How did the Potency turn out when `CC(=O)c1ccc(N=Nc2ccc(N(C)C)cc2)cc1` was run?
Answer: inconclusive: 12.6 µM [falling, partial curve]

Question: For `O=c1c(-c2ccccc2)coc2cc(O)ccc12`, which Potency is on record?
Answer: inconclusive: 12.6 µM [falling, partial curve]

Question: With `N#Cc1nc(-c2ccccc2F)oc1NCCc1ccccc1` as the compound, how does the “activity change, negative = inhibition” value read?
Answer: inactive: 2.73%

Question: Which Potency does the source give for `Cc1cc(NC(=O)c2ccoc2C)no1` here?
Answer: active: 17.8 µM

Question: `CN(C)c1ccc(-c2ccccc2)nn1` was tested. Which Potency did it give?
Answer: active: 25.1 µM

Question: With `O=C(NCC(=O)N(c1ccccc1F)C(C(=O)NC1CCCC1)c1ccco1)c1ccco1` (centres undefined) as the compound, how does the “activity change, negative = inhibition” value read?
Answer: inactive: 3.36%

Question: With `CC(C)CCC(CC(C)O)c1n[nH]c(=S)n1-c1ccccc1` (centres undefined) as the compound, how does the Potency read?
Answer: active: 10 µM

Question: How did the Potency turn out when `Nc1ccc(-n2cc(-c3ccccc3)[nH]c2=S)cc1` was run?
Answer: inconclusive: 15.8 µM [falling, partial curve]

Question: How did the Potency turn out when `CCOc1ccc2nc(NC(=O)c3ccco3)sc2c1` was run?
Answer: inconclusive: 22.4 µM [falling, partial curve]

Question: `O=C(Nc1ccc(-c2cn3ccccc3n2)cc1)c1ccco1` was tested. Which Potency did it give?
Answer: inconclusive: 20 µM [falling, partial curve]

Question: For `CC(C(=O)O)c1ccc(N2Cc3ccccc3C2=O)cc1` (centres undefined), which Potency is on record?
Answer: inconclusive: 15.8 µM [falling, partial curve]

Question: Which Potency does the source give for `CCc1nnc(NC(=O)C(=O)NCCOC(=O)c2ccccc2Cl)s1` here?
Answer: inconclusive: 25.1 µM [falling, single point]

Question: With `CCOC(=O)C1CCN(Cc2ccccn2)CC1` as the compound, how does the “activity change, negative = inhibition” value read?
Answer: inactive: 0.073%

Question: With `CN(C)/C=C/C(=O)c1ccc(Cl)c([N+](=O)[O-])c1` as the compound, how does the “activity change, negative = inhibition” value read?
Answer: inactive: 5.62%

Question: `Nc1nc(Nc2cccc(F)c2)nc2ccccc12` was tested. Which Potency did it give?
Answer: inconclusive: 25.1 µM [falling, single point]

Question: Which Potency does the source give for `Clc1ccc2nc(-c3ccccc3)cn2c1` here?
Answer: inconclusive: 25.1 µM [falling, partial curve]

Question: `CC(C)Oc1ccc(Cn2c(-c3ccco3)n[nH]c2=S)cc1` was tested. Which Potency did it give?
Answer: active: 14.1 µM

Question: Which “activity change, negative = inhibition” value does the source give for `NC(=O)c1cc(NC(=O)c2ccc(NS(=O)(=O)c3cccs3)cc2)cc(C(N)=O)c1` here?
Answer: inactive: -1.03%

Question: `Cc1ccc(C(=O)Nc2ccc3c(c2)OCO3)cc1` was tested. Which Potency did it give?
Answer: active: 22.4 µM

Question: With `CCCCn1c(CCn2nc(C)c(Br)c2C)n[nH]c1=S` as the compound, how does the Potency read?
Answer: active: 17.8 µM

Question: How did the Potency turn out when `O=C1Nc2ccc(Br)cc2/C1=N/N=C/C1=C(N2CCOCC2)C(=C\c2ccccc2)/CC1` was run?
Answer: active: 14.1 µM

Question: `Oc1c(Br)cc(Br)cc1C=NCc1ccc(F)cc1` was tested. Which Potency did it give?
Answer: inconclusive: 14.1 µM [falling, partial curve]

Question: How did the Potency turn out when `COc1ccc(/C=C2/SC(c3ccc(C)cc3)=NC2=O)cc1OC` was run?
Answer: inconclusive: 28.2 µM [falling, single point]

Question: How did the Potency turn out when `COc1cc(CC2(CCc3ccncc3)C(=O)N(C)C(=O)N(C)C2=O)cc(OC)c1OC` was run?
Answer: inconclusive: 3.55 µM [falling, full curve, poor fit]

Question: With `COc1ccccc1C(=O)Nc1ccc(C(=O)N2CCCC2)cc1` as the compound, how does the Potency read?
Answer: inconclusive: 22.4 µM [falling, partial curve]

Question: Which “activity change, negative = inhibition” value does the source give for `CC(C)n1nnnc1SCC(=O)NCCc1ccccc1` here?
Answer: inactive: -2.91%

Question: For `CCn1c(-c2cc3ccccc3cc2O)n[nH]c1=S`, which Potency is on record?
Answer: inconclusive: 10 µM [falling, partial curve]

Question: For `CCn1c(=O)c(C(=O)NCCc2ccc(OC)c(OC)c2)c(O)c2ccccc21`, which “activity change, negative = inhibition” value is on record?
Answer: inactive: 0.204%

Question: `Cc1ccc(C)c(S(=O)(=O)Nc2cc(SCC(=O)O)c(O)c3ccccc23)c1` was tested. Which Potency did it give?
Answer: active: 14.1 µM

Question: `CCOC(=O)C1CCCN(C(=O)c2cn(CC)c3ccc(S(=O)(=O)N4CCCC4)cc3c2=O)C1` (centres undefined) was tested. Which “activity change, negative = inhibition” value did it give?
Answer: inactive: -0.899%

Question: `O=c1c2ccccc2ncn1/N=C/c1ccccc1` was tested. Which Potency did it give?
Answer: inconclusive: 20 µM [falling, partial curve]

Question: For `O=C1/C(=C/N(C(=O)c2ccco2)c2ccc(Cl)cc2)Sc2ccccc21`, which Potency is on record?
Answer: inconclusive: 25.1 µM [falling, partial curve]

Question: `COc1cccc(-c2cn3nc4c(nc3n2)CCCC4)c1` was tested. Which Potency did it give?
Answer: active: 11.2 µM

Question: Which “activity change, negative = inhibition” value does the source give for `Cc1ccc(S(=O)(=O)[N-]c2nc3ccccc3nc2-n2cc[n+](Cc3ccccc3)c2)cc1` here?
Answer: inactive: 3.87%

Question: Which Potency does the source give for `Cc1ncoc1C(=O)Nc1ccc2c(c1)OCCO2` here?
Answer: active: 15.8 µM

Question: With `Cc1cccc(OCc2n[nH]c(=S)n2C2CCCCC2)c1` as the compound, how does the Potency read?
Answer: active: 17.8 µM

Question: With `CCOC(=O)N1CCN(C2=Nc3cccc4cccc2c34)CC1` as the compound, how does the “activity change, negative = inhibition” value read?
Answer: inactive: -2.58%

Question: How did the Potency turn out when `C=CCN=C1NN=C(c2cc(C)n(CCOC)c2C)CS1` was run?
Answer: inconclusive: 20 µM [falling, partial curve]

Question: How did the Potency turn out when `COc1ccc(C(=O)Nc2ccc(N3CCCC3)cc2)cc1OC` was run?
Answer: inconclusive: 22.4 µM [falling, partial curve]

Question: Which Potency does the source give for `COc1cc(/C=N/Nc2cccc3cccnc23)cc(OC)c1O` here?
Answer: inconclusive: 35.5 µM [falling, single point]

Question: How did the Potency turn out when `COc1cccc(C(=O)Nc2ccc(C(=O)O)cc2)c1` was run?
Answer: inconclusive: 25.1 µM [falling, single point]

Question: How did the Potency turn out when `O=C(CCc1ccccc1)Nc1ccccc1F` was run?
Answer: inconclusive: 25.1 µM [falling, single point]

Question: With `O=C(/C=C/c1ccco1)Nc1cccnc1Cl` as the compound, how does the Potency read?
Answer: active: 15.8 µM

Question: Which Potency does the source give for `COc1cccc(C(=O)/C=C/Nc2ccc(NC(C)=O)cc2)c1` here?
Answer: inconclusive: 15.8 µM [falling, partial curve]

Question: `C=C1CN(Cc2ccccc2)S(=O)(=O)c2ccccc21` was tested. Which Potency did it give?
Answer: inconclusive: 35.5 µM [falling, single point]
